Assay results as given in PubChem BioAssay AID662 (National Center for Advancing Translational Sciences (NCATS), 2007).
About 1,800 (2.5%) of roughly 71,000 compounds were called active. Inconclusive results, whose numbers are uncertain, are shown with a selection of clear calls. The call rests on the fitted dose curve; in most records, active means well fitted activation curve with a large enough effect in the signal ratio, with a control signal flat (not every such curve was filed as active); inconclusive means small, poorly fitted or top-dose-only effect, or effect the other way, or a change in a side signal; inactive means flat fitted curve, though single readings scatter; the % refers to the signal ratio. Where the call is inconclusive, the potency comes from a doubtful curve fit.

test: Cell signaling CRE-BLA (Fsk stim); conditions: CHO CRE-bla reporter (cAMP response element driving beta-lactamase), forskolin EC10, beta-lactamase ratio; activity change, negative = inhibition: at 38.2 µM (top of the series) unless noted; on activity change, negative = inhibition: % of control where 0% means no effect
Outline: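 Titrated compounds plus EC10 NKH 477 on CHO CRE-bla cells, 3 h, 37 °C. CCF4, 2 h RT. Ratio 460/530 nm → AC50.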
Potency means the concentration at half of the fitted maximal effect; tags describe the fitted curve by direction and shape.

Row | SMILES | Potency | activity change, negative = inhibition
1 | COc1cccc(C(=O)Nc2cc(C)c3c(=O)oc4ccccc4c3n2)c1 | inconclusive: 10 µM [rising, partial curve] | –
2 | COCCCn1c(=N)c(C(=O)NCc2ccc3c(c2)OCO3)cc2c(=O)n3ccccc3nc21 | inconclusive: 12.6 µM [rising, partial curve] | –
3 | O=C(NC1CCCCC1)N1CCC(c2nc3ccc(Cl)cc3[nH]2)CC1 | inconclusive: 12.6 µM [rising, partial curve] | –
4 | CCn1nc(C(=O)N2CCc3ccccc3C2)c2ccccc2c1=O | – | inconclusive: 29.6%
5 | COCCN1Cc2c(sc(C)c2C)N(C(=O)c2ccccc2)C1 | – | inconclusive: 28.4%
6 | COc1nc(N(C#N)CC(N)=O)nc(N2CCCC2)n1 | inconclusive: 12.6 µM [rising, partial curve] | –
7 | COc1ccc(-c2cc(C(F)F)nc(-n3nc(C)cc3C)n2)cc1 | inconclusive: 12.6 µM [rising, partial curve] | –
8 | COc1ccccc1N1CCN(C(=O)c2cn(-c3ccccc3)nc2-c2cccnc2)CC1 | – | inactive: -9.11%
9 | CCCn1nc(NC(=O)c2ccco2)c2cc3ccc(C)cc3nc21 | inconclusive: 15.8 µM [rising, partial curve] | –
10 | O=C(C1CCN(S(=O)(=O)c2ccc(Br)s2)CC1)N1CCc2ccccc21 | – | inconclusive: 44.8%
11 | Cc1cccc(OCc2nnc(SCC(=O)NCCc3ccccc3)o2)c1 | – | inconclusive: -18.5% [at 7.6 µM]
12 | Cc1occc1C(=O)Nc1sc2c(c1C(N)=O)CCCCC2 | inconclusive: 0.126 µM [rising, full curve, poor fit] | –
13 | COc1cccc(/C=N/n2cncn2)c1OCC#N | – | inconclusive: -16%
14 | CCOC(=O)c1c(NC(=O)CSc2nnc(-c3cccnc3)n2Cc2ccco2)sc(C)c1C | active: 3.98 µM | –
15 | Clc1cc2c(c(CSC3=NCN(CC4CC4)CN3)c1)OCOC2 | – | inactive: 1.9% [at 7.6 µM]
16 | Cc1ccc(OCCCn2c(CO)nc3ccccc32)cc1 | – | inactive: -15.2%
17 | CC(C)(C)c1cc(Br)ccc1OCC(=O)Nc1ncn[nH]1 | – | inactive: -3.18%
18 | CC1CCc2nc(NCCO)nc(C(F)(F)F)c2C1 (stereo not drawn) | inconclusive: 12.6 µM [rising, single point] | –
19 | CCOC(=O)CCNC(=O)Nc1ccc2nc(C)n(Cc3ccccc3Cl)c(=O)c2c1 | – | inactive: 8.99%
20 | CCOCC(=O)Nc1ccc(-c2cn3cccnc3n2)cc1 | – | inconclusive: 17.4%
21 | CCOC(=O)c1nc(NCc2cccnc2)c2ccccc2n1 | inconclusive: 12.6 µM [rising, partial curve] | –
22 | C=CCn1c(CCNC(=O)C(C)(C)C)nc2ccccc21 | – | inconclusive: -9.38%
23 | O=C(Nc1ccc2c(c1)OCO2)C1Cc2ccccc2CN1S(=O)(=O)c1cccs1 (stereo not drawn) | – | inconclusive: -15.8%
24 | CCOC(=O)c1ccccc1NC(=O)COc1ccccc1 | – | inconclusive: 23.7%
25 | COC(=O)c1cc(Cl)c(N)cc1OC | inconclusive: 15.8 µM [rising, partial curve, poor fit] | –
26 | c1ccc(CCCNc2ncnc3nc[nH]c23)cc1 | active: 7.94 µM | –

Row | SMILES | Potency | activity change, negative = inhibition
27 | COc1cc2c(O)c3c(c(-c4ccc5c(c4)OCO5)c2cc1OC)C(=O)OC3 | inconclusive: 3.16 µM [rising, single point] | –
28 | CC(=O)OC[C@H]1O[C@@H](n2ccc(=O)[nH]c2=S)C(OC(C)=O)C1OC(C)=O (stereo partly drawn) | – | inconclusive: -6.53%
29 | COc1cc(NC(=O)c2ccc(COCC(F)(F)F)o2)cc(OC)c1OC | – | inconclusive: 23.3%
30 | Cn1cnnc1SCc1ccc(F)c2ccccc12 | – | inconclusive: 37.8% [at 7.6 µM]
31 | Cc1nc(N2CCN(S(=O)(=O)c3cccc4nonc34)CC2)c2c3c(sc2n1)CCCC3 | – | inactive: -1.78%
32 | CCc1cc2c(C)cc(=O)oc2cc1OC(=O)C1CCCN1C(=O)OC(C)(C)C (stereo not drawn) | – | inconclusive: 25.4%
33 | Cc1nc2ccccc2n1CCc1nc2c3ccccc3nc(SCC(=O)NCc3ccco3)n2n1 | inconclusive: 12.6 µM [rising, partial curve, poor fit] | –
34 | CC(=O)c1cccc(NC(=O)C2CCCC2)c1 | – | inconclusive: -3.76% [at 7.6 µM]
35 | CCN(C(=O)c1c(-c2ccccc2)noc1C)c1ccccc1 | – | inconclusive: -13.8%
36 | CCCn1c(C)nc2c(N3CCN(C)CC3)nc(C)nc21 | – | inconclusive: 21.3%
37 | O=C(OC(C(=O)NCC1CCCO1)c1ccccn1)c1cccs1 (stereo not drawn) | – | inactive: -2.89%
38 | C=CCOC(=O)C(C#N)c1nc2ccccc2nc1N1CCN(c2ccccc2OC)CC1 (stereo not drawn) | – | inactive: 28.7%
39 | N#Cc1c(N)oc(-c2ccco2)c1-c1ccco1 | inconclusive: 5.01 µM [falling, single point] | –
40 | COC(=O)c1ccc2ncccc2c1 | – | inconclusive: -3.78%
41 | CS(=O)(=O)Nc1ccccc1Oc1ccccc1 | – | inconclusive: 10.9% [at 7.6 µM]
42 | CCOC(=O)CCc1c(C)nc(SCC(=O)O)c(C#N)c1C | – | inactive: -2.55%
43 | COc1ccccc1N1CCN(C(c2ccccc2Cl)c2nnnn2C(C)(C)C)CC1 (stereo not drawn) | – | inconclusive: 27.8%
44 | COc1ccc(-n2nnnc2SCC(=O)c2ccc(O)c(O)c2)cc1 | – | inconclusive: -26.8%
45 | O=C(CSc1nc2c(cnn2-c2ccc(F)cc2)c(=O)[nH]1)N1CCCc2ccccc21 | inconclusive: 3.98 µM [rising, partial curve, poor fit] | –
46 | CC(C)(C)C1CCc2[nH]nc(C(=O)O)c2C1 (stereo not drawn) | – | inactive: -26.9%
47 | O=C(c1ccc(-c2ccccc2)cc1)N1CCC(C(=O)N2CCCC2)CC1 | – | inactive: -11.4%
48 | CC(C)[C@@H]1NC(=O)[C@H](CCCCN)NC(=O)[C@H](Cc2c[nH]c3ccccc23)NC(=O)[C@H](Cc2ccc(O)cc2)NC(=O)[C@H](C)N(C)C(=O)[C@H](Cc2ccccc2)NC1=O | – | inactive: -7.67%
49 | COc1cc(C(=O)O)cc(Br)c1OC1CCCC1 | – | inconclusive: 12.1%
50 | c1ccc2[nH]c(CN3CCN(c4ncnc5c4oc4ccccc45)CC3)nc2c1 | inconclusive: 6.31 µM [rising, partial curve] | –
51 | O=C(C1CCCCC1)N1CCCC(c2nc(-c3ccc(F)cc3)no2)C1 (stereo not drawn) | – | inconclusive: 12.2%
52 | COCCOC(=O)C1=C(C)Nc2ncnn2C1c1ccc(F)cc1 (stereo not drawn) | – | inconclusive: -0.864%

Row | SMILES | Potency | activity change, negative = inhibition
53 | COc1ccccc1N1C(=O)C2CC=CC(C)C2C1=O (stereo not drawn) | – | inconclusive: 0.678% [at 7.6 µM]
54 | COc1cc(OC)cc(-c2cc3nc4c(c(N5CCN(c6ncccn6)CC5)n3n2)CCCC4)c1 | active: 3.16 µM | –
55 | O=C(NCc1ccco1)c1cc2ccc(O)cc2oc1=O | inconclusive: 2 µM [rising, full curve] | –
56 | O=C(c1ccc(Cl)s1)N1CCOCC1 | inconclusive: 20 µM [rising, partial curve, poor fit] | –
57 | CC(C)C[C@@H](CC(=O)N[C@H](CC(=O)N[C@@H]1CCCC[C@H]1C(=O)N[C@H](CC(=O)N[C@@H](CCC(=O)O)CC(=O)O)Cc1c[nH]c2ccccc12)C(C)C)NC(=O)[C@@H]1CCCC[C@H]1N | – | inconclusive: -10.6%
58 | Cc1onc(-c2ccccc2Cl)c1-c1nc(-c2ccccn2)no1 | active: 12.6 µM | –
59 | Cn1c(=O)[nH]c(=O)c2c1nc1n2CCCN1CCc1ccccc1 | inconclusive: 5.01 µM [rising, single point] | –
60 | CCc1noc(C)c1C(=O)Nc1sc(C(=O)N(C)C)c(C)c1C(=O)OC | inconclusive: 10 µM [rising, partial curve] | –
61 | CSc1ccccc1NC(=O)c1ccoc1C | – | inconclusive: 8.72% [cytotoxic]
62 | Cc1nc2ccccc2c2oc(C(=O)N3CCc4ccccc4C3)cc12 | inconclusive: 3.16 µM [rising, partial curve] | –
63 | CN1CCCC2(CCN(C(=O)c3cccc(F)c3)CC2)C1 | – | inactive: -2.6%
64 | CC(CCc1ccccc1)NC(=O)CSc1nc(N)cc(N)n1 (stereo not drawn) | – | inactive: -8.25%
65 | COc1ccc(-c2nc3oc4cc(OC)ccc4c(=O)c3c(=O)n2Cc2ccco2)cc1 | inconclusive: 12.6 µM [rising, partial curve] | –
66 | CC(C)C(C)(C)C(C)(C)C(C)(C)S | – | inactive: -1.19%
67 | CC1Cc2nc(SCC(=O)Nc3ccc4c(c3)OCO4)n(-c3ccc(F)cc3)c(=O)c2S1 (stereo not drawn) | inconclusive: 7.94 µM [rising, partial curve] | –
68 | C=CCn1cc(C(=O)NCc2cccnc2)c(=O)c2cc(S(=O)(=O)N(CC)CC)ccc21 | – | inconclusive: 24.1%
69 | CCOC(=O)c1c(NC(=O)Cc2cccs2)sc(C(=O)N2CCCCC2)c1C | active: 2 µM | –
70 | c1ccc(-c2nnn(CCN3CCCCC3)n2)cc1 | – | inactive: 2.96% [at 7.6 µM]
71 | Cc1ccc(CCNC(=O)C2CCN(C(=O)c3sccc3-n3cccc3)CC2)cc1 | – | inconclusive: -9.22%
72 | COc1ccc(-c2nc3cnc(Oc4ccccc4)nc3n(C3CC3)c2=O)cc1 | inconclusive: 12.6 µM [rising, partial curve] | –
73 | COC(=O)c1ccc(C(NC(=O)OCc2ccccc2)/C(F)=C/[C@@H](C)C(=O)NCc2cc(F)cc(F)c2)cc1 (stereo partly drawn) | – | inactive: -2.97%
74 | CC1Cc2ccccc2N1C(=O)CCNS(=O)(=O)c1ccc2c(c1)CCC(=O)N2 (stereo not drawn) | – | inconclusive: 13.8%
75 | O=C(O)c1c[nH]c2cc(OCc3ccccc3)ccc2c1=O | – | inactive: -4.6% [at 7.6 µM]
76 | COc1ccc2nc(NC(=O)c3ccc(-n4nc(C)cc4C)cc3)sc2c1 | – | inactive: -8.66%
77 | N#Cc1c(SCc2ccccc2)nc(N2CCOCC2)c2c1CCCC2 | – | inactive: 28.9% [at 7.6 µM]
78 | CCOC(=O)c1sc2ncn(C(CC)C(=O)OC)c(=O)c2c1C (stereo not drawn) | inconclusive: 10 µM [rising, single point] | –
